{"source": "PubChem BioAssay AID651820", "about": "(National Center for Advancing Translational Sciences (NCATS), 2012)", "note": "About 12,000 (3.5%) of roughly 340,000 compounds were called active. The inconclusive results got no clear call from the source; some entries with a clear call stand among them for comparison. The call rests on the fitted dose curve; in most records, active means well fitted inhibition curve with a large enough effect; inconclusive means small, poorly fitted or top-dose-only effect, or another doubt; inactive means no such curve, though single readings can be large or run the other way. No potency is given beside an inconclusive call; the fits are too rough. On the % scale 0 is the no-effect control and ±100 the full control effect; potency means the concentration at half of the fitted maximal effect; tags describe the fitted curve by direction and shape."}
{"test": "qHTS Assay for Inhibitors of Hepatitis C Virus (HCV)", "settings": "Huh7.5.1 HCVcc-Cre (HCVcc is cell-culture hepatitis C virus) infection, luciferase reporter, 44 h; activity change, negative = inhibition: at 41.8 µM (top of the series) unless noted", "how_it_was_run": "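Compounds are dispensed onto cells plated 4 h earlier at 1,000 per well, with HCVcc-Cre virus (about 0.5 moi) added next. Following 44 h of culture, luminescent signal is measured for 15 sec after 15 min with substrate at room temperature.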"}
{"smiles": "COc1ccc(C2/C=C\\CN(S(=O)(=O)c3ccc(C)cc3)[C@H](Cc3ccccc3)C(=O)N2Cc2ccc(F)cc2)cc1", "note": "(stereo partly drawn)", "Potency": "inconclusive [inhibitor, partial curve]"}
{"smiles": "Cc1ncoc1C(=O)NC1CC(C)(C)Cc2c1cnn2-c1ccc(F)cc1", "note": "(stereo not drawn)", "activity change, negative = inhibition": "inactive: 2.59%"}
{"smiles": "Cc1ccc(-c2nnc(N(C)C(=O)c3cccnc3)s2)cc1", "activity change, negative = inhibition": "inactive: 19.8%"}
{"smiles": "O=c1[nH]c(N2CCOCC2)nc2ccccc12", "activity change, negative = inhibition": "inactive: 9.82%"}
{"smiles": "O=C(Cn1cnc([N+](=O)[O-])c1)Nc1cc(Oc2ccc(Cl)cc2Cl)cc([N+](=O)[O-])c1", "Potency": "active: 6.31 µM"}
{"smiles": "COc1ccc2c(c1)c(C(=O)O)c(C)n2-c1ccccc1", "Potency": "inconclusive [inhibitor, single point]"}
{"smiles": "N#Cc1c(C(F)(F)F)cc(-c2cccs2)nc1SCC(=O)O", "activity change, negative = inhibition": "inactive: 10.4%"}
{"smiles": "O=C1Nc2ccc(Br)cc2/C1=C/C(=O)c1ccc2c(c1)OCO2", "Potency": "inconclusive [inhibitor, single point]"}
{"smiles": "Cc1cc(C)cc(NC(=O)[C@H](Cc2c[nH]c3ccccc23)NC(=O)[C@@H]2Cc3ccccc3CN2)c1", "Potency": "inconclusive [inhibitor, full curve]"}
{"smiles": "CCCn1cc(S(=O)(=O)CC(=O)Nc2ccc(OC)cc2OC)c2ccccc21", "Potency": "inconclusive [inhibitor, partial curve]"}
{"smiles": "Cc1ccc(C(=O)Nc2cccc(C(=O)NCc3ccccc3)c2)cc1", "Potency": "inconclusive [inhibitor, partial curve, poor fit]"}
{"smiles": "CC(C)CN1C(=O)/C(=C/c2ccco2)NC1=S", "activity change, negative = inhibition": "inactive: -22.6%"}
{"smiles": "CCCN1Cc2cccc(C(=O)NC(CC(=O)OCC)c3ccc(OC(C)C)cc3)c2C1=O", "note": "(stereo not drawn)", "Potency": "inconclusive [inhibitor, single point]"}
{"smiles": "O=C(/C=C/c1ccc(O)c(O)c1)OC(Cc1ccc(O)c(O)c1)C(=O)O", "note": "(stereo not drawn)", "Potency": "active: 10 µM"}
{"smiles": "N/C(=N\\OC(=O)c1cc(Cl)ccc1Cl)c1ccccn1", "Potency": "active: 11.2 µM"}
{"smiles": "Cc1cc(N2CCOCC2)nc2ccc(NC(=S)NCc3ccc4c(c3)OCO4)cc12", "Potency": "inconclusive [inhibitor, full curve]"}
{"smiles": "CC(=O)C(N=Nc1ccccc1)(Sc1nnc(-c2ccccc2)n1-c1ccccc1)C(=O)Nc1ccccc1", "note": "(stereo not drawn)", "activity change, negative = inhibition": "inactive: -15.7%"}
{"smiles": "CCOC(=O)c1c(NC(=O)CCc2ccc(CC)o2)sc(C)c1C", "Potency": "inconclusive [inhibitor, partial curve, poor fit]"}
{"smiles": "Cc1ccc(S(=O)(=O)c2c(C)nn(C(C)(C)C)c2OC(=O)c2ccc(Br)o2)cc1", "Potency": "inconclusive [inhibitor, partial curve]"}
{"smiles": "CCn1cc(CCC(=O)NC2CCCC2)c2ccccc21", "Potency": "inconclusive [inhibitor, partial curve]"}
{"smiles": "O=C(Nc1ccc(N2CCCCC2)cc1)c1ccc2c(c1)OCCO2", "Potency": "inconclusive [inhibitor, partial curve]"}
{"smiles": "CC(C)C(=O)N1CCN(c2ccc([N+](=O)[O-])c(NC(C)c3ccccc3)c2)CC1", "note": "(stereo not drawn)", "Potency": "inconclusive [inhibitor, partial curve]"}
{"smiles": "COC(=O)CSc1nc2cc3c(cc2cc1C)OCO3", "Potency": "inconclusive [inhibitor, full curve, poor fit]"}
{"smiles": "CCN(CC)c1ccc(/C=c2\\sc3nnc(-c4ccccc4Cl)n3c2=O)cc1", "activity change, negative = inhibition": "inactive: -14.7%"}
{"smiles": "Cc1ccc(NC(=O)CSc2nnc(N)s2)cc1S(=O)(=O)N1CCCCC1", "Potency": "inconclusive [inhibitor, single point]"}
{"smiles": "CC(Cc1cccc(C(F)(F)F)c1)NCCOC(=O)c1ccccc1", "note": "(stereo not drawn)", "Potency": "inconclusive [inhibitor, single point]"}
{"smiles": "CCCCN(C(=O)C1CC(=O)N(c2ccc3c(c2)OCCO3)C1)c1c(N)n(CCCC)c(=O)[nH]c1=O", "note": "(stereo not drawn)", "Potency": "inconclusive [inhibitor, single point]"}
{"smiles": "CCCCOc1ccccc1C(=O)NNC(=S)NC(=O)c1ccccc1[N+](=O)[O-]", "Potency": "inconclusive [inhibitor, partial curve]"}
{"smiles": "COc1cc(OC)cc(C(=O)NC(=S)NNC(=O)Cc2cccs2)c1", "Potency": "inconclusive [inhibitor, full curve, poor fit]"}
{"smiles": "Cc1nc(NC(=O)c2ccco2)sc1-c1csc(Nc2ccc(Cl)cc2Cl)n1", "Potency": "inconclusive [inhibitor, partial curve]"}
{"smiles": "COCCN1CCN(C(=O)C2CCC(=O)N(Cc3ccccc3OC)C2)CC1", "note": "(stereo not drawn)", "activity change, negative = inhibition": "inactive: -4.93%"}
{"smiles": "O=c1c2c(nc3cc(-c4ccc(Br)cc4)[nH]n13)CCCC2", "Potency": "inconclusive [inhibitor, single point]"}
{"smiles": "CCNC(=S)N/N=C/c1ccc(C(=O)O)cc1", "activity change, negative = inhibition": "inactive: 1.01%"}
{"smiles": "Nc1c(N(CCC2=CCCCC2)C(=O)COc2ccc(F)cc2Cl)c(=O)[nH]c(=O)n1Cc1ccccc1", "Potency": "inconclusive [inhibitor, single point]"}
{"smiles": "COc1cc2c(cc1OC)CN(C(=O)c1cccc(S(=O)(=O)N3CCc4ccccc43)c1)CC2", "Potency": "inconclusive [inhibitor, single point]"}
{"smiles": "c1ccc(SCCc2ccncc2)cc1", "Potency": "inconclusive [inhibitor, partial curve]"}
{"smiles": "O=C(Nc1ccc(F)cc1)N1CCN(c2nc3ccccc3s2)CC1", "Potency": "inconclusive [inhibitor, single point]"}
{"smiles": "CC1=NN(c2cccc(C(=O)O)c2)C(=O)/C1=C\\C=C/c1ccccc1", "Potency": "inconclusive [inhibitor, single point]"}
{"smiles": "CCc1ccc(C(=O)NC(=S)Nc2ccc(N3CCOCC3)cc2)cc1", "Potency": "inconclusive [inhibitor, single point]"}
{"smiles": "CCCC(=O)Nc1sc(-c2ccccc2)c(-c2ccccc2)c1C(=O)O", "activity change, negative = inhibition": "inactive: 15.4%"}
{"smiles": "CCN(C(=O)C1CCCN(c2nc(-c3ccc(OC)cc3)no2)C1)c1ccc(OC)cc1", "note": "(stereo not drawn)", "Potency": "inconclusive [inhibitor, single point]"}
{"smiles": "Cc1ccc(C(c2cc(Cl)c3cccnc3c2O)N2CCN(C)CC2)cc1", "note": "(stereo not drawn)", "Potency": "inconclusive [inhibitor, single point]"}
{"smiles": "CCOc1ccc(CCNC(=O)C2CC(=O)N(CCc3ccc(OC)c(OC)c3)C2)cc1OCC", "note": "(stereo not drawn)", "Potency": "inconclusive [inhibitor, partial curve, poor fit]"}
{"smiles": "CCC(=O)c1ccc(OCC(=O)OCC(=O)Nc2cccc(S(=O)(=O)N3CCCC3)c2)cc1", "activity change, negative = inhibition": "inactive: 1.46%"}
{"smiles": "Oc1ccc(Cl)cc1", "activity change, negative = inhibition": "inactive: 44.5%"}
{"smiles": "CCC(=O)N1N=C(c2cccs2)CC1c1ccc(OC)cc1", "note": "(stereo not drawn)", "Potency": "inconclusive [inhibitor, single point]"}
{"smiles": "O=C(NCCSCc1c(F)cccc1Cl)Nc1ccccc1", "activity change, negative = inhibition": "inactive: 3.02%"}
{"smiles": "Cc1cccc(Oc2nc(-c3ccncc3)nc3ccccc23)c1", "Potency": "active: 7.08 µM"}
{"smiles": "CC(=O)Nc1ccc(S(=O)(=O)N2CCC(C(=O)c3ccc(F)cc3)CC2)cc1", "Potency": "inconclusive [inhibitor, partial curve]"}
{"smiles": "CCCCN(CC)CCNC(=O)c1nn(-c2ccc(OC)cc2)c(=O)c2c1c1ccccc1n2C", "Potency": "inconclusive [inhibitor, single point]"}
{"smiles": "COC(=O)c1sc(NC(=O)c2cc3c(s2)CCCC3)nc1C", "Potency": "inconclusive [inhibitor, partial curve]"}
{"smiles": "COc1cc(OC)cc(C(=O)NC(=S)Nc2ccc3[nH]c(=O)[nH]c3c2)c1", "activity change, negative = inhibition": "inactive: 21.4%"}
{"smiles": "O=C(NCCCCc1ccccc1)C1CC(c2ccc(C(F)(F)F)cc2)=NO1", "note": "(stereo not drawn)", "activity change, negative = inhibition": "inactive: 11.6%"}
{"smiles": "COc1ccc(COC(=O)C2=C(C)NC(=O)NC2c2ccccc2F)cc1", "note": "(stereo not drawn)", "Potency": "inconclusive [inhibitor, partial curve]"}
{"smiles": "COc1ccc(CN(C)C(=O)CCN=C2NS(=O)(=O)c3ccccc32)c(OC)c1", "Potency": "inconclusive [inhibitor, partial curve, poor fit]"}
{"smiles": "COc1ccc(-c2sc3ccc(N4CCOCC4)cc3c2C#CCO)cc1", "Potency": "active: 3.16 µM"}
{"smiles": "CC(C)=CCc1c(-c2ccc(O)cc2O)oc2c3c(cc(O)c2c1=O)OC(C)(C)C=C3", "Potency": "inconclusive [inhibitor, partial curve]"}
{"smiles": "CN(C)CC(=O)Nc1ccc(Oc2ccc(Cl)cc2)cc1", "Potency": "inconclusive [inhibitor, single point]"}
{"smiles": "CSc1nc(N)nc(SCC(=O)C(C)(C)C)c1C#N", "Potency": "inconclusive [inhibitor, single point]"}
{"smiles": "CC1=CC(C)(C)Nc2ccc(OS(=O)(=O)c3ccc(C)cc3)cc21", "Potency": "inconclusive [inhibitor, single point]"}
{"smiles": "CC(C)CCn1nnnc1C(C(C)C)N1CCC(C(N)=O)CC1", "note": "(stereo not drawn)", "Potency": "inconclusive [inhibitor, partial curve, poor fit]"}
{"smiles": "CCOC(=O)Cc1csc(NC(=O)/C=C/c2ccc(Br)o2)n1", "Potency": "inconclusive [inhibitor, partial curve]"}
{"smiles": "O=C(C1CC(c2ccc(F)cc2)=NO1)N1CCc2ccccc2C1", "note": "(stereo not drawn)", "activity change, negative = inhibition": "inactive: -1.2%"}
{"smiles": "Cc1ccc(C(c2c(C)n(C)n(-c3ccccc3)c2=O)c2c(C)n(C)n(-c3ccccc3)c2=O)s1", "activity change, negative = inhibition": "inactive: -22.4%"}
{"smiles": "CC1=Nn2c(nc3sc4c(c3c2=O)CCCC4)SC1", "activity change, negative = inhibition": "inactive: -15.7%"}
{"smiles": "O=C(O)/C=C/C(=O)Nc1ccc(C2(c3ccc(NC(=O)/C=C/C(=O)O)cc3)c3ccccc3-c3ccccc32)cc1", "activity change, negative = inhibition": "inactive: -8.49%"}
{"smiles": "COc1cc(NC(=O)c2cccc([N+](=O)[O-])c2)ccc1NC(=O)c1ccco1", "Potency": "inconclusive [inhibitor, partial curve, poor fit]"}
{"smiles": "O=C(N/N=C/c1ccco1)c1cc(-c2cccc(Br)c2)nc2ccccc12", "Potency": "inconclusive [inhibitor, single point]"}
